# Laboratory results: a collection of fitness landscapes (doi:10.1126/science.1257360)
# This is one part of the list.
# B1: PhoQ; a variant is named by its letters at X, in order, P23837 (parent)
# chain: MKKLLRLFFPLSLRVRFLLATAAVVLVLSLAYGMVALIGYSVSFDKTTFRLLRGESNLFYTLAKWENNKLHVELPENIDKQSPTMTLIYDENGQLLWAQRDVPWLMKMIQPDWLKSNGFHEIEADVNDTSLLLSGDHSIQQQLQEVREDDDDAEMTHSVAVNVYPATSRMPKLTIVVVDTIPVELKSSYMVWSWFIYVLSANLLLVIPLLWVAAWWSLRPIEALAKEVRELEEHNRELLNPATTRELTSLVRNLNRLLKSERERYDKYRTTLTDLTHSLKTPLXXLQXXLRSLRSEKMSVSDAEPVMLEQISRISQQIGYYLHRASMRGGTLLSRELHPVAPLLDNLTSALNKVYQRKGVNISLDISPEISFVGEQNDFVEVMGNVLDNACKYCLEFVEISARQTDEHLYIVVEDDGPGIPLSKREVIFDRGQRVDTLRPGQGVGLAVAREITEQYEGKIVAGESMLGGARMEVIFGRQHSAPKDE
# Variants of: B1
# Experiment: enrichment ratio after two sorts for PhoP signalling (ratio (wild type AVST 3.29)); higher = more functional
# Details: with PhoP (E. coli)
row,Variant,enrichment ratio
1,KELI,≤ 0.25
2,YNCA,0.384
3,GFRR,≤ 0.25
4,VGYV,≤ 0.25
5,PRNF,≤ 0.25
6,PNPY,≤ 0.25
7,HMKY,≤ 0.25
8,YCHM,≤ 0.25
9,QMQW,≤ 0.25
10,IMDV,≤ 0.25
11,NGHY,≤ 0.25
12,WLYK,≤ 0.25
13,NWWK,≤ 0.25
14,EMPV,≤ 0.25
15,DNKS,≤ 0.25
16,HEHR,≤ 0.25
17,TKPH,≤ 0.25
18,RLQI,≤ 0.25
19,RLFL,≤ 0.25
20,TRPG,≤ 0.25
21,HYRR,≤ 0.25
22,FLYQ,≤ 0.25
23,CLCC,≤ 0.25
24,NSSW,≤ 0.25
25,EPVY,≤ 0.25
26,VNID,≤ 0.25

row,Variant,enrichment ratio
1,PTSK,≤ 0.25
2,KRFW,≤ 0.25
3,AWSG,≤ 0.25
4,TDLV,8.9
5,HKNL,≤ 0.25
6,FPCG,≤ 0.25
7,PIKV,≤ 0.25
8,WFGF,≤ 0.25
9,EHRD,1.35
10,DNLF,≤ 0.25
11,TCHS,0.799
12,GHFR,≤ 0.25
13,AMPV,≤ 0.25
14,AVSM,11.3
15,LNSH,≤ 0.25
16,IWVW,≤ 0.25
17,AVIC,1.38
18,MHLT,≤ 0.25
19,SCLL,7.53
20,FKMS,0.264
21,DAVT,≤ 0.25
22,AMNL,3.05
23,QYGW,≤ 0.25
24,NCSV,≤ 0.25
25,DNTV,≤ 0.25
26,GMLP,≤ 0.25

row,Variant,enrichment ratio
1,VDPT,≤ 0.25
2,VFHN,≤ 0.25
3,FDMW,≤ 0.25
4,NQFY,0.914
5,VHIK,≤ 0.25
6,TPEP,≤ 0.25
7,VIAP,0.39
8,PVVI,≤ 0.25
9,VSQN,≤ 0.25
10,DNAP,≤ 0.25
11,HNKI,≤ 0.25
12,YCMK,≤ 0.25
13,KGRE,≤ 0.25
14,WTLM,1.03
15,HSQK,≤ 0.25
16,DSNK,≤ 0.25
17,PFQF,≤ 0.25
18,MEVK,≤ 0.25
19,NDHW,≤ 0.25
20,PNNG,≤ 0.25
21,AGFD,≤ 0.25
22,NVPY,≤ 0.25
23,RHDS,≤ 0.25
24,GDQT,≤ 0.25
25,FAKL,0.467
26,PYTM,≤ 0.25

row,Variant,enrichment ratio
1,GANF,≤ 0.25
2,ATSR,0.713
3,VEVM,≤ 0.25
4,NCLE,≤ 0.25
5,EEQR,≤ 0.25
6,LHHI,≤ 0.25
7,FQYM,≤ 0.25
8,LFHQ,≤ 0.25
9,WRAQ,≤ 0.25
10,SYNT,≤ 0.25
11,YMKC,≤ 0.25
12,KNWA,≤ 0.25
13,VPNC,≤ 0.25
14,AHSA,≤ 0.25
15,VKCS,≤ 0.25
16,ALEW,≤ 0.25
17,CLSS,1.71
18,QYIV,≤ 0.25
19,FRPQ,≤ 0.25
20,PDTL,≤ 0.25
21,HMWR,≤ 0.25
22,GFWP,≤ 0.25
23,QDAC,≤ 0.25
24,VVIW,≤ 0.25
25,NHTN,≤ 0.25
26,YDYE,≤ 0.25

row,Variant,enrichment ratio
1,YPHA,≤ 0.25
2,GWNP,≤ 0.25
3,LVVP,≤ 0.25
4,VYRV,≤ 0.25
5,SSFH,≤ 0.25
6,RDTA,≤ 0.25
7,GMLT,≤ 0.25
8,MRWH,≤ 0.25
9,EKYM,≤ 0.25
10,MTCG,≤ 0.25
11,STFR,≤ 0.25
12,IMQG,≤ 0.25
13,PHCI,≤ 0.25
14,FTPG,≤ 0.25
15,WKVQ,≤ 0.25
16,MWYN,≤ 0.25
17,SGQG,2.54
18,QFML,≤ 0.25
19,PKHA,≤ 0.25
20,NPAA,≤ 0.25
21,KVID,≤ 0.25
22,NPSL,≤ 0.25
23,PLIS,≤ 0.25
24,TTYT,2.48
25,CRFP,≤ 0.25
26,SIWL,≤ 0.25

row,Variant,enrichment ratio
1,DQTF,≤ 0.25
2,NWVH,≤ 0.25
3,LQEV,≤ 0.25
4,WLTY,≤ 0.25
5,SSER,≤ 0.25
6,GCLE,≤ 0.25
7,MYCY,≤ 0.25
8,PNSP,≤ 0.25
9,EMHH,≤ 0.25
10,QLKQ,≤ 0.25
11,TWIQ,4.49
12,RFIQ,≤ 0.25
13,PKQR,≤ 0.25
14,SDFD,≤ 0.25
15,ADWR,≤ 0.25
16,SGEA,≤ 0.25
17,DKIE,≤ 0.25
18,RMIF,≤ 0.25
19,REIG,≤ 0.25
20,KCNW,≤ 0.25
21,TERS,≤ 0.25
22,SVQD,≤ 0.25
23,KIWP,≤ 0.25
